# Laboratory results from the supplement of paper PMC9446081.
# Hit rate of the full screen: of about 39,000 compounds, about 220 (0.56%) showed activity. Some of the results follow.
# Tested on: Escherichia coli K-12 BW25113
# Test: relative growth (OD600 normalised to plate interquartile mean) (fraction); higher = less growth inhibition, active = 0.2 or less
# Conditions: 50 µM; LB; incubation time: overnight (16-24 h)
# 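Also: static incubation at 37 °C against the wild-type strain, values averaged over two biological replicates.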
row,SMILES,relative growth
1,CN1C(=O)Cc2cc(NS(C)(=O)=O)ccc21,inactive: 0.981
2,Cc1ccc(S(=O)(=O)N(C)C[C@@H]2OCCCC[C@H](C)Oc3ccc(NC(=O)C4CCCCC4)cc3C(=O)N([C@H](C)CO)C[C@@H]2C)cc1,inactive: 0.997
3,C[C@H]1CN([C@@H](C)CO)C(=O)CCCn2nncc2CO[C@@H]1CN(C)Cc1ccc(C(=O)Nc2ccccc2N)cc1,inactive: 1.03
4,COc1ccc(NC(=O)Nc2ccc3c(c2)C(=O)N([C@@H](C)CO)C[C@@H](C)[C@@H](CN(C)Cc2ccc(Cl)c(Cl)c2)OCCCC[C@H](C)O3)cc1,inactive: 1.02
5,C[C@@H]1CN([C@@H](C)CO)C(=O)c2cc(NS(=O)(=O)c3ccc(Cl)cc3)ccc2O[C@@H]1CN(C)Cc1ccc(-c2ccccc2)cc1,inactive: 1
6,CC(C)NC(=O)N(C)C[C@H]1OCCCC[C@H](C)Oc2ccc(NS(=O)(=O)c3cn(C)cn3)cc2C(=O)N([C@H](C)CO)C[C@@H]1C,inactive: 0.979
7,O=C1OCCC=C[C@H]2O[C@@]34C=CCN(Cn5nnc6ccccc65)C(=O)[C@H]3N(CCCCCO)C(=O)[C@@H]4[C@@H]12,inactive: 1.02
8,C[C@@H]1CN([C@H](C)CO)C(=O)c2cc(C#CCN(C)C)cnc2O[C@H]1CN(C)C(=O)CCN1CCCCC1,inactive: 0.983
9,O=C1OCC=C[C@H]2O[C@@]34C=CCN(Cn5nnc6ccccc65)C(=O)[C@H]3N(CCCCCCO)C(=O)[C@@H]4[C@@H]12,inactive: 0.971
10,Cc1ccc(S(=O)(=O)Nc2ccc3c(c2)CC(=O)N([C@H](C)CO)C[C@@H](C)[C@H](CN(C)C(=O)NC(C)C)O3)cc1,inactive: 1.01
11,C[C@@H]1CN([C@@H](C)CO)C(=O)c2cc(NS(=O)(=O)c3ccc(F)cc3)ccc2O[C@H]1CN(C)S(C)(=O)=O,inactive: 1.03
12,C[C@H](CO)N1C[C@H](C)[C@@H](CN(C)Cc2ccc(-c3ccccc3)cc2)Oc2ccc(NC(=O)Nc3ccccc3)cc2C1=O,inactive: 0.974
13,C[C@H]1CN([C@@H](C)CO)C(=O)c2cc(-c3ccc(F)cc3)cnc2O[C@H]1CN(C)C(=O)Cc1ccccn1,inactive: 1.01
14,O=C(C[C@@H]1CC[C@@H]2[C@H](COC[C@H](O)CN2C(=O)c2ccc3c(c2)OCO3)O1)NCCN1CCCC1,inactive: 1.03
15,Cc1ccc(S(=O)(=O)N(C)C[C@H]2Oc3ccc(NC(=O)C4CC4)cc3CC(=O)N([C@H](C)CO)C[C@@H]2C)cc1,inactive: 0.983
16,COc1ccc(NC(=O)N(C)C[C@@H]2Oc3c(NC(=O)Nc4cccc5ccccc45)cccc3C(=O)N([C@@H](C)CO)C[C@@H]2C)cc1,inactive: 1.01
17,C[C@H]1CCCCO[C@@H](CN(C)Cc2ccc(C(F)(F)F)cc2)[C@@H](C)CN([C@@H](C)CO)C(=O)c2cc(NC(=O)c3ccccc3)ccc2O1,inactive: 1.02
18,C[C@H]1CN([C@@H](C)CO)C(=O)Cc2cc(NS(C)(=O)=O)ccc2O[C@H]1CN(C)Cc1ccc(C(=O)Nc2ccccc2N)cc1,inactive: 1.01
19,O=C(C[C@@H]1C=C[C@H](NC(=O)CN2CCOCC2)[C@@H](CO)O1)NCCc1ccccc1,inactive: 1.02
20,C[C@@H]1CN([C@H](C)CO)S(=O)(=O)c2ccc(C#CCC3CCCC3)cc2O[C@H]1CN(C)C(=O)c1cnccn1,inactive: 0.999
21,O=C(C[C@H]1CC[C@H]2[C@@H](COC[C@H](O)CN2S(=O)(=O)c2ccc(Cl)cc2)O1)NCCN1CCCC1,inactive: 0.993
22,Cc1noc(C)c1NC(=O)N(C)C[C@@H]1Oc2c(NS(C)(=O)=O)cccc2C(=O)N([C@H](C)CO)C[C@@H]1C,inactive: 0.996

row,SMILES,relative growth
1,C[C@H](CO)N1C[C@H](C)[C@H](CN(C)C(=O)Nc2ccc(F)cc2)Oc2c(NS(C)(=O)=O)cccc2C1=O,inactive: 1.01
2,O=C(CN1CCOCC1)N[C@H]1CC[C@@H](CCn2cc(C3CC3)nn2)O[C@H]1CO,inactive: 1.03
3,C[C@@H]1CN([C@@H](C)CO)C(=O)c2cccc(NC(=O)Nc3ccc4c(c3)OCO4)c2O[C@@H]1CN(C)Cc1ccc(Cl)c(Cl)c1,inactive: 0.984
4,CO[C@@H]1CN(C)C(=O)c2cc(NC(=O)c3ccc(F)cc3)ccc2OC[C@@H](C)N(C(=O)CN(C)C)C[C@@H]1C,inactive: 1.03
5,C[C@H](CO)N1C[C@H](C)[C@H](CN(C)Cc2ccc(Oc3ccccc3)cc2)Oc2ccc(NC(=O)Cn3cnnn3)cc2C1=O,inactive: 1.03
6,COc1ccc([C@H]([C@@H](O)Cc2ccccc2)N(C/C=C/[C@@H](O)c2ccccc2)[C@@H](Cc2ccccc2)C(OC)OC)cc1,inactive: 1.01
7,NC(=O)c1ccnc(Cl)c1,inactive: 0.994
8,COc1ccc(S(=O)(=O)Nc2ccc3c(c2)C(=O)N([C@H](C)CO)C[C@H](C)[C@H](CN(C)C(=O)Nc2ccc(C(F)(F)F)cc2)OCCCC[C@@H](C)O3)cc1,inactive: 1
9,C[C@H](CO)N1C[C@H](C)[C@H](CN(C)C(=O)Nc2ccc(C(F)(F)F)cc2)Oc2ccc(NC(=O)Nc3ccc4c(c3)OCO4)cc2CC1=O,inactive: 1.03
10,CN(C)CCCCNC(=O)[C@H]1C[C@H]2C(=O)N[C@@H](Cc3ccccc3)C(=O)N2[C@H]1c1cccc(OCCO)c1,inactive: 0.991
11,CN(C)c1cc(CN)ccn1,inactive: 0.989
12,C[C@H]1CN([C@@H](C)CO)C(=O)c2cc(NS(=O)(=O)c3cn(C)cn3)ccc2O[C@H]1CN(C)S(=O)(=O)c1cccs1,inactive: 0.991
13,COc1ccc(S(=O)(=O)N(C)C[C@@H]2OCCCC[C@@H](C)Oc3ccc(NC(=O)NC4CCCCC4)cc3C(=O)N([C@H](C)CO)C[C@@H]2C)cc1,inactive: 1.01
14,CC(=O)Nc1nc(C(=O)O)cs1,inactive: 1.02
15,CN1CCC(=C2c3ccccc3Sc3ccccc32)CC1.O=C(O)C=CC(=O)O,inactive: 0.967
16,CC(C)NC(=O)N(C)C[C@H]1Oc2c(NS(=O)(=O)c3ccccc3)cccc2C(=O)N([C@@H](C)CO)C[C@@H]1C,inactive: 0.995
17,CONC(=O)Nc1ccc(-c2sc3c(c2CN(C)Cc2ccccc2)c(=O)n(-c2ccccc2)c(=O)n3Cc2c(F)cccc2F)cc1,inactive: 1.04
18,Cc1cc(C(=O)N2CCNC(=O)C2(C)C)no1,inactive: 1
19,COc1cc(C=CC(N)=O)cc(OC)c1OC,inactive: 1.05
20,O=C(NCc1ccccc1)c1cn[nH]n1,inactive: 0.897
21,C[C@@H]1CN([C@@H](C)CO)C(=O)c2cccc(NS(=O)(=O)c3cn(C)cn3)c2O[C@H]1CN(C)C(=O)Nc1ccccc1,inactive: 1
22,C[C@H]1CN([C@@H](C)CO)C(=O)c2cccc(NC(=O)Nc3ccc4c(c3)OCO4)c2O[C@@H]1CN(C)S(=O)(=O)c1cn(C)cn1,inactive: 0.992

row,SMILES,relative growth
1,CN(C)C(=O)C[C@H]1CC[C@@H](NC(=O)C2CCOCC2)[C@@H](CO)O1,inactive: 1.01
2,C[C@H]1CN([C@@H](C)CO)S(=O)(=O)c2ccc(C#Cc3ccccc3F)cc2O[C@H]1CN(C)CC1CCOCC1,inactive: 1.03
3,Cc1ccc(NC2=CC(=O)C[C@H](c3ccc(Cl)cc3)C2)cc1,inactive: 1.03
4,O=C1CCN(c2ccccc2)N1,inactive: 0.856
5,COc1ccc2c3c(n(c2c1)C)[C@@H](CO)N(C[C@]13CN(C1)C(=O)Nc1cccc(c1)F)C(=O)CN1CCOCC1,inactive: 0.87
6,C[C@@H]1CCCCO[C@@H](CN(C)Cc2ccncc2)[C@@H](C)CN([C@@H](C)CO)C(=O)c2cc(NC(=O)Nc3ccc(C(F)(F)F)cc3)ccc2O1,inactive: 1.02
7,C[C@H](CO)N1C[C@H](C)[C@H](CN(C)CC2CC2)OCCCC[C@H](C)Oc2ccc(NS(=O)(=O)c3ccc(Cl)cc3)cc2C1=O,inactive: 0.977
8,COc1ccc2c3c([nH]c2c1)[C@H](CO)N(C[C@]13CCN(CC1)C(=O)NC(C)C)C(=O)CN1CCOCC1,inactive: 0.988
9,c1ccc(NC2CCCCC2)nc1,inactive: 0.906
10,C=CCOC(=O)[C@H]1[C@@H]2C(=O)O[C@@H](c3ccccc3)[C@@H](c3ccccc3)N2[C@@H](c2ccc(OCCOC(=O)[C@H]3C[C@H]4C(=O)NCC(=O)N4[C@H]3c3ccc(O)cc3)cc2)[C@]12C(=O)Nc1ccccc12,inactive: 1.04
11,C[C@H](CO)N1C[C@H](C)[C@H](CN(C)Cc2ccc(-c3ccccc3)cc2)Oc2ccc(NS(=O)(=O)c3ccc(Cl)cc3)cc2C1=O,inactive: 1.05
12,CN(C)CC#Cc1ccc([C@@H]2[C@H]3CN(C(=O)CN(C)C)CC(=O)N3[C@H]2CO)cc1,inactive: 0.991
13,NC(=O)[C@H]1CCCCN1,inactive: 0.997
14,CCCCN(CCCC)CCCC.Nc1ncnc2c1ncn2[C@H]1O[C@@H](COP(=O)(O)O)[C@@H](O)[C@@H]1O,inactive: 0.98
15,O=C(Nc1ccc(-c2nc3cc(NC(=O)c4ccccc4Cl)ccc3o2)cc1)c1ccccc1Cl,inactive: 1
16,COc1ccc(S(=O)(=O)N(C)C[C@@H]2Oc3c(NC(=O)c4ccncc4)cccc3C(=O)N([C@H](C)CO)C[C@@H]2C)cc1,inactive: 0.999
17,C[C@H]1CN([C@@H](C)CO)C(=O)c2cc(NC(=O)C3CC3)ccc2O[C@H]1CN(C)Cc1ccc2c(c1)OCO2,inactive: 0.978
18,O=C(O)c1cc2sccc2s1,inactive: 0.958
19,CO[C@@H]1CN(C)C(=O)c2ccc(NS(=O)(=O)c3cn(C)cn3)cc2OC[C@H](C)N(CC2CC2)C[C@H]1C,inactive: 0.969
20,C[C@@H]1CN([C@H](C)CO)C(=O)Cc2cc(NC(=O)Cn3cnnn3)ccc2O[C@H]1CN(C)S(=O)(=O)c1cccs1,inactive: 1.01
